Experimental findings from PubChem BioAssay AID488969 (Vanderbilt High Throughput Screening Facility, 2010) are described below.

The full ranking holds about 110,000 compounds; the median of “z-score” is about -0.1, and the highest 2% start at about 2. Some of the results follow.

The assay has as its target Metabotropic glutamate receptor 8 (Rattus norvegicus) (UniProt P70579). Kind of assay: rat mGluR8 modulators via GIRK flux, primary screen, cell-based, thallium flux, HTS (AID 488969). The following applies: HEK293 rat mGluR8, GIRK (G protein-gated inwardly rectifying potassium channel) thallium flux, FluoZin2; at 10 µM; stronger effect = higher value; submaximal glutamate (EC20) added with thallium.
Sequence of UniProt P70579 (P70579 whole entry, looked up): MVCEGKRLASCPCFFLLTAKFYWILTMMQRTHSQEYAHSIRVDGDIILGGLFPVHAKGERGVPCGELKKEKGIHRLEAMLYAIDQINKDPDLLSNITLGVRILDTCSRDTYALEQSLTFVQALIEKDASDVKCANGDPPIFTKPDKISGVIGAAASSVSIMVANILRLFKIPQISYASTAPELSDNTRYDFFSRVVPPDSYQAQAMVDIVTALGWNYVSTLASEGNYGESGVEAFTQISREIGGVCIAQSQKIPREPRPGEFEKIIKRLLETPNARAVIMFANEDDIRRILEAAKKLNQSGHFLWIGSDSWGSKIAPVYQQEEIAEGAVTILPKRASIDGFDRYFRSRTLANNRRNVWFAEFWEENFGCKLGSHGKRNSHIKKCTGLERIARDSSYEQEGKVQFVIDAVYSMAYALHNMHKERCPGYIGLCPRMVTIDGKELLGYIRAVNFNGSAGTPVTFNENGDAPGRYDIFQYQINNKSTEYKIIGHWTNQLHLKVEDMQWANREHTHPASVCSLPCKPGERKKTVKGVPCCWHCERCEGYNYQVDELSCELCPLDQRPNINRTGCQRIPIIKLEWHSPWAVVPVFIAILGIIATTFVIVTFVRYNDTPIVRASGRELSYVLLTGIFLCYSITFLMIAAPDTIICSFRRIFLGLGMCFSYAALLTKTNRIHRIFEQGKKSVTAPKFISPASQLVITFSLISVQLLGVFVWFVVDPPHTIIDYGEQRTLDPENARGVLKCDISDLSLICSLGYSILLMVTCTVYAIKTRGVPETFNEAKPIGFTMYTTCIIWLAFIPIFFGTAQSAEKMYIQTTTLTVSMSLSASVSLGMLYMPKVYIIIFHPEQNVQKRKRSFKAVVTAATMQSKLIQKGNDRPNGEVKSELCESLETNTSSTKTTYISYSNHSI
In turn, `CNC(=O)CSc1nnnn1-c1cc(C)ccc1C` returned a z-score of -0.269.
As for `O=C(Nc1ccccc1)c1cnc[nH]1`, the figure is -0.382.
As for `COc1ccc(-c2cc(C(=O)NCc3cccnc3)no2)cc1`, the figure is -0.138.
The figure for `CC(C)C(OC(=O)c1cccs1)C(=O)NCc1cccs1` (stereo not drawn) is 1.86.
Take `CCOC(=O)C1(C(F)(F)F)N=C(C(F)(F)F)Nc2ccccc21` (stereo not drawn): the z-score is -0.0217.
As to `CC(=O)Nc1ccc(S(=O)(=O)N(C)CCOCc2ccccc2)cc1`, the z-score was found to be 0.784.
As for `COc1ccccc1-n1c(C)nc2cc(C(=O)NCc3ccc4c(c3)OCO4)ccc21`, the figure is -0.332; as for `O=S(=O)(/N=C(\Sc1ccccc1)c1ccccc1)c1ccc(Cl)cc1`, -0.0735; as for `CCn1nnc(NC(=O)c2sc3ccccc3c2Cl)n1`, 0.967.
Regarding `COc1ccc(CCNC(=O)COc2ccc(S(=O)(=O)NCC(C)C)cc2Cl)cc1OC`, the z-score was -0.464.
As for `O=C(c1cccc(Br)c1)N1CCCC1`, the figure is -0.319; as for `Cc1ccc(C(C(=O)NC2CCCC2)N(Cc2cccnc2)C(=O)c2snc(C(N)=O)c2N)o1` (stereo not drawn), -0.175.
As for `CC1CC(=O)N(C)c2ccc([N+](=O)[O-])cc2N1` (stereo not drawn), the figure is -0.291; as for `Cc1nn(C/C(C#N)=N\O)c(C)[n+]1N`, -0.018.
The figure for `O=C(COc1ccc2ccccc2c1)Nc1cccc(C(=O)Nc2ccccc2C(=O)O)c1` is -0.933.
The compound `COc1ccccc1N1CCN(C(=O)c2ccc(CSc3ccccc3)cc2)CC1` came in with a z-score of 0.0362.
`CN(Cc1ccccc1)C(=O)C1CCCN(Cc2ccc(Cl)cc2)C1` (stereo not drawn) displayed a z-score of -0.229.
Regarding `O=C(Nc1cc(C(F)(F)F)ccc1F)C1CCCC1`, the z-score is -0.142.
For the compound `O=C1NC(=Nc2ccccc2)S/C1=C\c1cccn1-c1ccccc1`, the z-score was -0.24.
With `O=S(=O)(c1ccccc1)c1cnn2c(C(F)(F)F)cc(-c3ccccc3)nc12`, the z-score was -0.0328.
The figure for `CCCCNC(=O)CS(=O)Cc1nc(-c2cccc(Cl)c2)oc1C` (stereo not drawn) is -0.421; for `C=CCn1cnc2scc(-c3ccccc3)c2c1=O` it is 0.17; for `Cn1c(NC(=O)C2CC2)cc(=O)n(C)c1=O` it is -0.336.
The figure for `CC(NC(=O)c1ccccc1F)C(=O)O` (stereo not drawn) is 0.352; for `Cc1cc(C)n(C(=O)COc2c(C)cccc2C)n1` it is 0.876.
`CCOc1ccc(NC(=O)Nc2nnc(CC)s2)cc1` gave a z-score of -0.713.
The figure for `CCC(C)NC(=O)C1CCN(c2nc(OC)nc(OC)n2)CC1` (stereo not drawn) is 0.12; for `NNc1nc2c(Cl)cccc2s1` it is -0.321.
`Cc1nc2c(C(=O)NCc3ccc(F)cc3)c[nH]n2c(=O)c1Cl` returned a z-score of -0.807.
The figure for `Cc1cccc(OCCOC(=O)Nc2ccccc2)c1` is -0.107; for `Nc1cc2c(cc1C(=O)c1ccccc1)OCCO2` it is 0.199.
As for `CCOC(=O)c1sc(NC(=O)CSc2nc3c(cc2C#N)CCCCC3)c(C#N)c1C`, the figure is -0.113; as for `CC(=O)Nc1ccc(S(=O)(=O)NNC(=O)COc2ccc(C(C)(C)C)cc2)cc1`, -0.0776.
`CCOC(=O)Cc1csc(NS(=O)(=O)c2ccc(F)cc2)n1` showed a z-score of 0.0276.
As for `Cc1nn(-c2ccccc2)c2ncc(C(=O)c3cc(Cl)ccc3O)cc12`, the z-score was -1.54.
For `CCN(CC)c1ccc(/C=N/Nc2nc(C)cc(=O)[nH]2)cc1`, the z-score was -0.103.
Take `CCN(CC)S(=O)(=O)c1ccc(-c2nnc(SCC(=O)N3c4ccccc4CC3C)n2CC)cc1` (stereo not drawn): the z-score was -0.133.
As for `CCOC(=O)C1=C(C)NC(SCC(N)=O)=C(C#N)C1c1cccs1` (stereo not drawn), the figure is -0.537; as for `CCc1cccc2c(/C=N/NC(=O)c3cccc(S(=O)(=O)Nc4ccccc4Cl)c3)c[nH]c12`, -0.57.
The figure for `CCOC(=O)C1CCCc2c1[nH]c1c(C(=O)O)cccc21` (stereo not drawn) is 0.713; for `Cc1ccc(Sc2ccc([N+](=O)[O-])cc2[N+](=O)[O-])nc1` it is -0.158.
With `CC(C)(C)NC(=O)CN(Cc1cccs1)C(=O)C1COc2ccccc2O1` (stereo not drawn), the z-score was -0.32.
The figure for `COc1ccc(-c2cc(C(F)(F)F)nc(-n3ccnc3C)n2)cc1` is -0.187; for `COc1ccc(CCNC(=S)Nc2cccc(C)c2C)cc1` it is 0.194; for `COc1ccc(CC(=O)N2CCc3ccccc32)cc1` it is 0.0191.
The figure for `Cc1ccc(NC(=O)c2cn(-c3cccc(C)n3)cn2)cc1` is 0.00633; for `COc1ccc(NC(=O)C(c2ccc(C)cc2)N(C)C(=O)CC2NC(=O)NC2=O)cc1` (stereo not drawn) it is -0.6.
The figure for `COc1ccc(-n2nnnc2SCc2nc3ccccc3s2)cc1` is -0.0706; for `COc1ccc(-c2cnc(N)n2CC2CCCO2)cc1` (stereo not drawn) it is -0.256.
As for `Cn1c(O)c(C=NCC2CCNCC2)c(=O)n(C)c1=O`, the z-score amounted to 0.695.
As for `COc1ccc(NC(=O)CSc2nnc(C3CC3)n2-c2ccccc2)cc1`, the z-score was determined as 0.316.
The figure for `Cc1ccc(OCC(=O)N/N=C\c2c(C)n(C)c3ccccc23)c([N+](=O)[O-])c1` is -0.392.
As for `O=C(COC(=O)CCC(=O)c1cccs1)Nc1cc(S(=O)(=O)N2CCOCC2)ccc1Cl`, the figure is -0.416.
In the case of `CCOC(=O)N1CCN(S(=O)(=O)c2ccc(OCC(=O)OC)c(C)c2)CC1`, the z-score is -0.157.
As for `CCN(CC)c1nc(C)c(C(C)=O)cc1C#N`, the figure is -0.31; as for `CC(NC(=O)c1cccnc1)C(c1cccs1)N1CCN(C)CC1` (stereo not drawn), -0.0346.
As for `Cc1cc(-c2c(C)[nH]n(-c3ccc(Cl)cc3)c2=O)n[nH]1`, the figure is -0.115; as for `Cc1nc2c(Cl)cccc2[nH]1`, 0.0958; as for `COc1cccc(/C=N/NC(=O)c2nc(-c3ccccc3)cc(-c3ccccc3)n2)c1O`, -0.12.
Compound `CCCc1cc(=O)[nH]c(SCc2ccccc2)n1` came in with a z-score of -0.501.
As for `Cc1ccc(Cn2c(SCC(=O)NCC3CCCO3)nc3c(sc4ccccc43)c2=O)cc1` (stereo not drawn), the figure is 2.06; as for `COCCNC(=O)/C(C#N)=C/c1ccc(-c2ccc(OC)cc2[N+](=O)[O-])o1`, -0.564.
For the compound `O=C(COc1cc(Cl)c(Cl)cc1Cl)Nc1ccncc1`, the z-score was 1.2.
Turning to `S=c1nc[nH]c2c1[nH]c1ccccc12`, the z-score came out at 0.0879.
The figure for `COc1ccccc1NC(=S)NC1CCCCC1` is -0.189; for `CCOC(=O)c1c(-c2ccccc2Cl)csc1NC(=O)CSc1nc(C)cc(=O)[nH]1` it is -1.63.
As for `CCCOc1ccccc1N/C(=N/c1nc(C)cc(C)n1)NC(=O)COc1ccc(OC)cc1`, the figure is 0.266; as for `CC1(C)C=C(c2ccc(C=O)s2)CC(C)(C)N1`, -0.126.
As to `COc1cccc(/C=N\n2c(C)nnc2C)c1OC`, the z-score is -0.307.
`COc1ccc(Cl)cc1-n1c(N)c(C(N)=O)sc1=S` had a z-score of -0.176.
For the compound `COc1ccc(-c2cc(-c3cccs3)c(C#N)c(SCC(=O)NCc3ccccc3OC)n2)cc1`, the z-score stood at 0.373.
As to `CCOC(=O)c1cnc(SCC(=O)Nc2cc(C(F)(F)F)ccc2N2CCOCC2)nc1N`, the z-score was 0.251.
Consider `CCOc1cc(/C=N/NC(=O)c2ccc(CN3CCOCC3)cc2)ccc1OCc1ccccc1`, for which the z-score is -0.182.
